Data reported in ChEMBL document CHEMBL1201862, “PubChem BioAssay data set” (2004).
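Interpolation was linear, between the two tested concentrations surrounding the appropriate level; five concentrations were tested over 48 hours in 96-well plates. The concentration for 50% growth inhibition is given as GI50.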 Calls of active or inactive are those of the source. Rule as the data show it: active = GI50 up to about 1.1 µM and inactive = higher.

What follows are compounds tested on NCI-H322M (assay: NCI-60 cell line screen, 48 h).

Structure (SMILES)	GI50
N=c1sc2ccccc2n1CC[S-].c1ccc2c(c1)sc1[n+]2CCS1	inactive: 20.7 µM
N#Cc1c(NC(=O)CCC(=O)O)ccc2ccccc12	inactive: > 100 µM
N=c1oc2ccccc2cc1-c1nc2ccccc2c(=O)[nH]1	inactive: 66.7 µM
O=C(O)CC1(CC(=O)O)Nc2ccccc2SC1=O	inactive: > 100 µM
O=C(O)C/C(=C\c1ccccc1)C(=O)O	inactive: > 100 µM
CCOc1ccccc1NC(=O)C(=O)Cc1nc2ccccc2s1	inactive: > 100 µM
OC(c1cc(-c2ccccc2)nc2c1ccc1ccccc12)C1CCCCN1 (configuration not stated)	inactive: 1.64 µM
C=C(C)C1CC[C@@](C)(O)[C@H](C#N)C1 (some centres not stated)	inactive: > 100 µM
Cc1cc(-c2c(F)cc3c4nn([C@H]5CC[C@@H](N(C)C)CC5)c(=O)c-4cn(C4CC4)c3c2F)cc(C)n1	inactive: 1.83 µM
O=C1CC(NC(=O)C(F)(F)F)c2c1csc2Br (configuration not stated)	inactive: 6.58 µM
Cc1ccc(Sc2ccccc2C23OC(C)(C4C(=O)N(c5ccccc5)C(=O)C42)N(C)C3=O)cc1 (configuration not stated)	inactive: > 100 µM
COc1cc(-c2nc(SC)nc3c2CCc2ccccc2-3)cc(OC)c1OC	inactive: > 100 µM
COc1cc(OC)nc(NC(=O)NS(=O)(=O)c2cccc3ncn(C)c(=O)c23)n1	inactive: > 100 µM
COc1cc(OC)c2c(=O)c(OC)c(-c3ccc4c(c3)OCO4)oc2c1OC	inactive: > 100 µM
CC(CC(=O)Nc1ccc(NC(=O)CC(C)/N=N\C(N)=S)cc1)/N=N\C(N)=S (configuration not stated)	inactive: > 100 µM
Cc1ccc(N2C(=O)CS/C2=C(\C#N)c2nc3ccccc3[nH]2)cc1	inactive: 50.4 µM
Cc1ccc(/C=N/Nc2nncc3ccccc23)s1	inactive: 97.3 µM
O=C1C(Cl)=C(N2CCN(c3ccccn3)CC2)C(=O)c2ncccc21	inactive: 12.3 µM
CCCCc1ccc(Nc2nc3c(ncn3C3OC(COC(C)=O)C(OC(C)=O)C3OC(C)=O)c(=O)[nH]2)cc1 (configuration not stated)	inactive: 19.9 µM
COc1cc(OC)cc(Oc2nc3ccccc3nc2C(F)(F)F)c1	inactive: > 100 µM
N/N=C(\C(=O)Nc1c(Cl)cc([N+](=O)[O-])cc1Cl)C(c1cnc2ccc([N+](=O)[O-])cc2n1)[N+](=O)[O-] (configuration not stated)	inactive: > 100 µM
O=[N+]([O-])c1ccc(-c2ccc(/C=N/n3c(S)nnc3-c3ccc(Cl)cc3)o2)cc1	inactive: 42.4 µM
CC(=O)OCC1OC(n2c3c(c(-c4ccc(Cl)cc4)c(C#N)c2=S)C(=O)CC(C)(C)C3)C(OC(C)=O)C(OC(C)=O)C1OC(C)=O (configuration not stated)	inactive: > 65.6 µM

Structure (SMILES)	GI50
Cn1c2cn[nH]c(=O)c2c2ccc3ccccc3c21	inactive: 45.4 µM
CCN(CC)CCCC(C)Nc1ccnc2ccc3nn(C)nc3c12 (configuration not stated)	inactive: 35.2 µM
O=c1[nH]c(=O)n(C2CC(O)C(CO)O2)cc1C#Cc1cc(F)cc(F)c1 (configuration not stated)	inactive: > 100 µM
Cc1cc(CC(O)c2ccc(Cl)c(Cl)c2)nc(O)n1 (configuration not stated)	inactive: 88.5 µM
COc1ccc(O)c2c(=O)ccccc12	inactive: > 100 µM
Cc1ccc(C(=O)NCCN(C)C)c2nc3ccccc3cc12	inactive: 4.38 µM
Fc1ccc(/C=C2\COCC3=C2NC(=S)NC3c2ccc(F)cc2)cc1 (configuration not stated)	inactive: 23.2 µM
C=CCNC(=S)NC=C(C(N)=O)C(N)=O	inactive: > 100 µM
CC(=O)CC(=O)NC=O	inactive: > 100 µM
O=[N+]([O-])c1cccc(C2=NN(c3ccccc3)C3c4ccccc4OCC23)c1 (configuration not stated)	inactive: > 100 µM
NC(=S)Nc1nc(=S)[nH]c2c1SC1=N/C(=C\c3ccco3)C(=O)N12	inactive: > 100 µM
CC(=O)Nc1ccc2c(c1)/C(=C\c1ccc([N+](C)(C)C)cc1)c1ccccc1-2	inactive: 24.1 µM
CC(=O)NC1C(OCc2ccccc2)OC(CO)C(O)C1OCC(=O)N[C@@H](C)C(=O)N[C@H](CCC(=O)NCCCNc1c2ccccc2nc2cccc([N+](=O)[O-])c12)C(N)=O (some centres not stated)	active: 0.11 µM
C=CCOc1ccc(C(=N/NC(=O)c2ccccc2)/N=N/c2ccccc2)cc1OC	inactive: 43 µM
COc1ccc(CC(=O)N2CCC3(C)CC(=O)CC=C23)cc1OC (configuration not stated)	inactive: > 100 µM
CCCCCCCCCCCCCS(=O)(=O)NCC(N)=O	inactive: > 10 µM
COc1cc(OC)c2c(c1)C(=O)C(CC1(C)OCCCO1)=CC2=O	inactive: 16.3 µM
O=C1C(C(c2ccc([N+](=O)[O-])cc2)N2CCOCC2)=C(O)C(c2ccccc2)N1c1ccccc1 (configuration not stated)	inactive: > 10 µM
O=C1NC(c2ccc3ccccc3c2)Nc2ccccc21 (configuration not stated)	inactive: 49.9 µM
Cc1ccc(Nc2nnc3n2S(=O)(=O)c2cc(C)c(Cl)cc2S3)cc1	inactive: 5.4 µM
Nc1nc(Nc2ccc(Cl)cc2)sc1C(=O)c1cc2ccccc2oc1=O	inactive: 62.4 µM
CC(=O)NC1C(OCc2ccccc2)OC(CO)C(O)C1OC(C)C(=O)NC(C(=O)NC(CCC(=O)NCCCNc1ccc([N+](=O)[O-])c2[nH]c3ccccc3c(=O)c12)C(N)=O)C(C)C (configuration not stated)	inactive: > 100 µM
CC(=O)Nc1ccc(C(=O)N2N=C(C)/C(=C/c3cccc([N+](=O)[O-])c3)C2=O)cc1	inactive: > 100 µM

Structure (SMILES)	GI50
COc1ccc(/C(Cl)=C(\C=O)c2ccc(OC)cc2)cc1	inactive: 91.8 µM
O=c1[nH][nH]c(=O)[nH]1	inactive: > 100 µM
CCCCCC1=C/C(=C\c2[nH]c(-c3ccc[nH]3)cc2OC)N=C1C	active: 0.0201 µM
O/N=C\c1cc(O)c(O)c(/C=N/O)c1	inactive: 39.6 µM
CN/C(=N\N=C1/C(=O)Nc2ccccc21)SCC(=O)c1ccc(Br)cc1	inactive: 13.5 µM
CCOP(=O)(OCC)/C(C#N)=C/c1ccc(-c2cc(C(F)(F)F)cc(C(F)(F)F)c2)o1	inactive: 12.6 µM
O=C1[C@@H]2C[C@@H](O)CN2C(=O)c2ccccc2N1CCCO	inactive: > 100 µM
Oc1cccc2ccc(Br)nc12	inactive: > 100 µM
Clc1ccc(-n2nnc(C3=NCCN3)c2-c2ccccc2)cc1	inactive: > 100 µM
N#CCOc1ccc(/C=C/C(=O)c2ccc(Cl)cc2)cc1	inactive: 83.4 µM
CCOC(=O)C1=C(C)N(Cc2ccc(Cl)cc2Cl)C2(O)C(OC)CC(=O)C3C(=O)N(c4ccccc4)C(=O)C132 (configuration not stated)	inactive: 8.73 µM
CC(C)(C)C(=O)C(c1ccc(-c2cscn2)cc1)c1ccc(-c2cscn2)cc1	inactive: 90.6 µM
Cc1cc(O)cc(O)c1/N=N/c1ccc([N+](=O)[O-])cc1	inactive: 19.7 µM
CCOC(C/N=c1/nc(N(C)C)ss1)OCC	inactive: > 85.9 µM
CCC(C)C(N)C(=O)N/N=C\c1c2c(nc3ccccc13)-c1cc3c(c(=O)n1C2)COC(=O)[C@]3(O)CC (some centres not stated)	active: 0.817 µM
COC(=O)C1=C(C)NC(=O)N2[C@@H](CCOCc3ccccc3)CC[C@@H]12	inactive: > 50 µM
O=C1NCC(CSc2nc3cc(C4CCCc5c4[nH]c4ccccc54)ccc3o2)N1 (configuration not stated)	inactive: 52.2 µM
Nc1ccc(C(=O)CC2(O)C(=O)Nc3ccccc32)cc1 (configuration not stated)	inactive: > 100 µM
ONCCCn1cnc2c(NC3CC3)ncnc21	inactive: > 100 µM
COc1cccc(C2C(C(=O)O)=C(CO)Oc3cc4c(cc32)OCO4)c1 (configuration not stated)	inactive: > 100 µM
C/C1=C\[C@H](C)C[C@H](C)OC(=O)C[C@H](c2ccc(O)cc2)NC(=O)[C@H](Cc2ccc(O)c(Br)c2)N(C)C(=O)[C@H](C)NC(=O)[C@@H](C)C1	inactive: > 25 µM
CCOC(=O)C1=C(Nc2ccccc2)SC/C1=N\NC(=O)Cc1ccccc1	inactive: > 100 µM
CC1(C)CCC2=C(O1)/C(=N\Nc1ccccc1)c1ccccc1C2=O	inactive: 31.2 µM

Structure (SMILES)	GI50
CC1(C)OC(=S)N(c2ccccc2)C12C=Cc1cc3ccccc3nc1S2 (configuration not stated)	inactive: > 100 µM
Cc1nc2cc(C(F)(F)F)ccc2[nH]c1=O	inactive: > 100 µM
O=P1(Oc2ccc(Cl)cc2)OCCS1 (configuration not stated)	inactive: > 100 µM
CN(C)C1C(O)=C(C(=O)NCN2CCCC2)C(=O)C2(O)C(O)=C3C(=O)c4c(O)cccc4C(C)(O)C3CC12 (configuration not stated)	inactive: > 100 µM
COc1ccc(C2ON(c3cccc(C)n3)CC=C2C)cc1 (configuration not stated)	inactive: > 100 µM
ClCCN(CCCl)c1ccc(/C=N/Nc2ccnc3ccccc23)cc1	inactive: 1.21 µM
OCc1ccn2c1[C@@H](O)CC2	inactive: > 100 µM
CS(=O)(=O)OCCN(CCOS(C)(=O)=O)c1ccc(/C=N/c2ccc3oc(=O)ccc3c2)cc1	inactive: 16.3 µM
Cc1ccc(OP(=O)(Oc2ccc(C)cc2)N2C=Cc3ccccc3C2C#N)cc1 (configuration not stated)	inactive: > 100 µM
CC(=O)O[C@H]1CC[C@@]2(C)C(=CC[C@@H]3[C@@H]2CC[C@]2(C)NC(=O)/C(=C\c4ccccc4)C[C@@H]32)C1	inactive: 16.9 µM
COc1cc(C2c3cc4c(cc3OC(N3CCOCC3)C2C)OCO4)cc(OC)c1OC (configuration not stated)	inactive: 2.37 µM
CC(C)[Si](OC1=CCC[C@H]2NC(=O)[C@@H](Cc3ccc([N+](=O)[O-])cc3)[C@@]12C)(C(C)C)C(C)C	inactive: 14.7 µM
Cc1ccc(NC(=O)/C(Cc2nc3ccc([N+](=O)[O-])cc3nc2O)=N\NC(=O)C[n+]2ccccc2)c(C)c1	inactive: 81.8 µM
O=S(O)CCCCCSSCCCCSSCCCCCS(=O)O	inactive: > 100 µM
COC1CC(O[C@H]2CC[C@@]3(C)C(=CCC4(O)C3CCC35C(=O)OC6(C)O[C@@]43CCC65)C2)OC(C)C1O (some centres not stated)	inactive: > 100 µM
NC(C(=O)O)c1cc(O)no1 (configuration not stated)	inactive: > 100 µM
O=C1Cc2c([nH]c3ccccc23)-c2cc(Br)ccc2N1	inactive: > 100 µM
COc1cc2nc(Sc3c([N+](=O)[O-])ncn3C)[nH]c2cc1OC	inactive: 50.8 µM
O=C(O)C(Cc1c[nH]cn1)N1C(=O)c2ccccc2C1=O (configuration not stated)	inactive: > 100 µM
C=Cc1ccc(C)[n+](C[Si](C)(C)O[Si](C)(C)C[n+]2cc(C=C)ccc2C)c1	inactive: > 100 µM
CC1(C)CC(=O)C(=CNc2nc(-c3cccc([N+](=O)[O-])c3)cs2)C(=O)C1	inactive: 51.2 µM
Cc1cc2ccccc2c[n+]1CC(O)C[n+]1cc2ccccc2cc1C	inactive: > 100 µM
CCCCCCCCCCCCCCCCCC(=O)NCC(COP(=O)([O-])OCC[N+](C)(C)C)OCC (configuration not stated)	inactive: 19.2 µM
